# Source: ChEMBL document CHEMBL5308541, “MAIP: An Open-Source Tool to Enrich High-Throughput Screening Output and Identify Novel, Druglike Molecules with Antimalarial Activity” (ACS Med Chem Lett, 2023)
# In all, about 150,000 compounds went through this assay and about 540 (0.36%) showed an effect of 50% or more. This is one part of the list.
# Test system: Plasmodium falciparum
# Experiment: Primary screen in NF54 nanoGlo assay, in single point, at 2uM, 72h; a lower Z score goes with more inhibition
# Format: functional, Erythrocyte
# Conditions: timepoint 72 hour
SMILES,% Inhibition,Z score
CCN1CCN(C[C@@H](C)CNCc2cc(-c3ccccc3)ccc2OC)CC1,19%,-4.12
OC1(C2CCN(C3CC4(CCCCC4)C3)CC2)CC1,2%,-0.23
c1ccc(CN2CC3CCC(C2)N(c2ncnc4cc[nH]c24)C3)cc1 (centres undefined),11%,-1.65
Fc1ccc(N2CC[C@H](NCCOc3cccc4cccnc34)C2)cc1,0%,-0.07
CCN(C[C@H](O)c1cccc(O)c1)C(=O)c1ccccc1-c1nn[nH]n1,-3%,0.66
CC(=O)NC1C(Oc2cccc(Nc3nc(-c4ccc(C)cc4)nc4ccccc34)c2)OC(CO)C(O)C1O (centres undefined),2%,-0.34
COc1cc(CNC(=O)NCc2nc(C)cs2)c2ccccc2n1,-1%,0.18
CC(C)(C)OC(=O)NCCN1C(=O)c2ccccc2N[C@@H]1c1ccc(OCCN2CCCC2)cc1,-9%,1.35
Cc1ncnc(OCC2CCN(S(=O)(=O)c3ccccc3Cl)CC2)c1C,-1%,0.22
CCN1CCN(Cc2cc(C)cc(CNCc3nc4cc(C)ccc4[nH]3)c2C)CC1,4%,-0.85
O=C(Cc1c[nH]c2cc(F)ccc12)N[C@H]1CCCN(Cc2ccc(F)cc2F)C1=O,0%,0.01
Cn1cc(-c2cncc(CNC(=O)c3cc(-c4ccc(F)cc4)n[nH]3)c2)cn1,-4%,0.77
Clc1cccc(N2CC[C@H](CNC3CCN(Cc4ccco4)CC3)C2)c1,31%,-5.5
CCCc1nc(N2CC(O)C(Cc3ccnc4ccccc34)C2)no1 (centres undefined),1%,-0.16
COc1cc([C@H]2Nc3cc(Cl)ccc3-c3ccnn32)ccc1OCc1cccc(C(F)(F)F)c1,-16%,2.4
COCC1C(C(=O)NCCN2CCC(N3CCCCC3)CC2)CCCN1C (centres undefined),-5%,0.82
COc1cc(CN2C[C@H]3CNC[C@H]3C2)ccc1OCCN1CCCC1,-5%,0.82
COc1ccc(-c2onc(C)c2C)cc1S(=O)(=O)NCCCN1CCC(N2CCCCC2)CC1,15%,-2.57
Cc1cc(CC(C)C)nc(N2CC[C@H](NC3CCNCC3)C2)n1,-10%,1.77
O=C(Nc1nc(C(F)(F)F)c[nH]1)c1cc(-c2ccccc2)[nH]n1,4%,-0.88
CN1CCN([C@H]2CCN(Cc3cc(O)c4ccccc4n3)C2)CC1,-3%,0.59
C=C(C)CNc1nc(N)nc2c1CCN(C(=O)CN1CCNCC1)CC2,21%,-3.65
CN1CCN(C(=O)Nc2ncc(-c3ccccc3)s2)[C@@H](CNC(=O)OC(C)(C)C)C1,-2%,0.32
COc1ccc([C@H](C(=O)O)N2CCCOc3c(cccc3OC)C2)cc1F,-5%,0.92
Fc1cnc(NCCCOC2CCN(Cc3ccccc3)CC2)nc1,4%,-0.82
CN1CCC(OCCCNC(=O)c2cccc(-c3cccc(C#N)c3)c2)CC1,5%,-0.77

SMILES,% Inhibition,Z score
O=C(c1cc(-c2ccccc2)[nH]n1)N1CCC(N2CCC[C@@H]2COCc2ccccc2)CC1,-1%,0.24
Oc1nc2ccccc2cc1CNc1cccc(-c2nnc[nH]2)c1,-7%,1.22
CCOC1CC(CNC2CCN(C3CCCCC3)CC2)(N2CCOCC2)C1 (centres undefined),-1%,0.19
Cc1cc(N2CCN(S(=O)(=O)c3cccnc3)CC2)nc(NC2CCCCC2)n1,1%,-0.17
Fc1ccc([C@H]2CCN(Cc3ccc4[nH]ccc4c3)C2)cc1,-4%,0.88
Fc1cc2ncnc(N3CCCN(C4CCOCC4)CC3)c2cc1F,2%,-0.43
N#Cc1cnc2ccccc2c1Nc1ccccc1Cl,-3%,0.65
Clc1ccccc1N1CC[C@H](c2nc(-c3cccc4[nH]ccc34)no2)C1,0%,-0.01
CC1(S(=O)(=O)NC2(C3CCC3)CCC2)CC1,-8%,1.45
COCCO[C@@H](C)C(=O)NC1(c2ccc(F)cc2F)CCOCC1,-2%,0.37
Cn1cc(-c2nc([C@@H]3COCCN3c3ccnc(-c4ccccc4)n3)no2)cn1,-6%,1.06
C[C@@H](c1cccc(-c2nc(N)nc3[nH]cnc23)c1)N1CCCC1,-6%,1.28
O=C(NC1CCCN2CCCC12)c1ccc(-c2cnco2)cc1 (centres undefined),1%,-0.18
CCc1ncc2c(n1)CN(Cc1nc3ccc(OC)cc3s1)CC2,7%,-1.29
O=C(Cc1c[nH]c2ccccc12)Nc1ccc(F)c(N2CCS(=O)(=O)CC2)c1,3%,-0.48
CC(=O)N1CCc2c(nc(-c3ccccn3)nc2NCCNc2ccccc2)C1,2%,-0.36
O=S1(=O)CCN(C2CCN(c3ncnc4ccc(F)cc34)CC2)CC1,-9%,1.73
C[C@H]1CN(c2ccc(C(=O)N3CCC(Oc4cccnc4)CC3)cn2)CCN1,-9%,1.59
Cc1ccc(F)cc1NC(=O)CNC(=O)c1cc(C(C)C)nn1C,-20%,4.3
OCCNc1nc(NCc2cccc3[nH]ccc23)cc([C@H]2CCOC2)n1,-9%,1.35
CC(C)NC(=O)Nc1cccc(C(=O)N2CCN(Cc3ccc(F)cc3)C[C@@H]2C)c1,-1%,0.23
CCCCC1CN(C(=O)c2cc(C)nc(C)c2)CC(C(C)C)O1 (centres undefined),5%,-1
COc1cccc([C@@H](O)CNc2nc(N)c3ccccc3n2)c1,4%,-0.55
CN(C)c1ncc(CN[C@H]2CCCc3c2[nH]c2ccccc32)n1C,-11%,1.91
O[C@@H]1CO[C@H]2[C@@H]1OC[C@@H]2Nc1nccc(-c2cccc3ccccc23)n1,-4%,0.54
CCN(C)c1cc(NCCCc2nnn[nH]2)ncn1,1%,-0.14
